Measured values as given in the supplement of paper PMC11417369.
± gives the standard deviation of the averaged measurements. The list shows a part of the results.

Tested on: PfAP2-EXP AP2 domain (GST-tagged)
Test: gcPBM binding intensity (ln(normalized median fluorescence intensity)); higher = stronger DNA binding
How it was run: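 GST-tagged P. falciparum DNA-binding domains, expressed in E. coli (about 25 μg on average), were applied for 1 h to an Agilent 4 × 180k array of primer-extended double-stranded 36-bp intergenic genomic probes plus negative controls. The binding buffer was 1× PBS with 1% milk, 0.2 mg/ml BSA, 0.5% salmon testes DNA and 0.03% Triton X-100. Bound protein was detected with Alexa488 anti-GST antibody and scanned at 488 nm. Binding intensity is the highest Masliner-normalised natural-log median intensity across replicate spots of either probe orientation.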

| Sequence | gcPBM binding intensity (ln) |
| --- | --- |
| AAATAAAAAACAGTGGCACACATTATGTATCCACCT [CACACA_site3756] | 8.3 ± 0.26 |
| AAAAAAAAAATATACACACACATATAAATATAAATA [CACACA_site7574] | 8.54 ± 0.51 |
| TTAAAGTAGAGAAAATGTACATTTTATTAACACAAT [XGTACX_site6369] | 8.72 ± 0.38 |
| TACAGATACAGATACACACACACACCGAAATAAATA [CACACA_site4865] | 8.74 ± 0.53 |
| CTTTAAGTTATATGAAGTACAATTTAAAAAAATGAA [XGTACX_site358] | 8.41 ± 0.38 |
| TAAATTCCTACATACGCATGTACATTAAAATTTTAA [TGCATGCA_site215] | 8.79 ± 0.51 |
| AAAATAAAAAGAAAAAGAAAAAAGGGGGGGTAGGGG [CACACA_negctrl_site1048] | 9.395 ± 0.092 |
| ATACATTCAATGAAATGTACGTTTATTTACAGAAGA [XGTACX_site2999] | 8.53 ± 0.39 |
| TAATGGTTATCACTAACATGCAGTAATATTATATAG [TGCATGCA_site176] | 8.68 ± 0.32 |
| AAAAGAAAAAAAAAAAAAAAAAAAATTAAAATATAA [CACACA_negctrl_site17] | 7.92 ± 0.52 |
| ATATATATATGTATATGTACATATATATGGTAACTC [XGTACX_site681] | 9.6 ± 0.11 |
| TTTTTTCTTTTTTTTTGTACATATAATATTTATGTT [XGTACX_site302] | 8.62 ± 0.4 |
| TAAAATATTATTTATTTACACACCAATCTTCTTTTC [CACACA_site9320] | 8.34 ± 0.42 |
| ATATAATATTTATATGCACACTTTTCTATATATAAG [CACACA_site6100] | 8.54 ± 0.26 |
| TCGTATTTAAAATGTAGTACATAATTTGAAAAATAA [XGTACX_site5832] | 8.42 ± 0.13 |
| TACTATTATAAATATGTGCACTTCAATAATATACTA | 8.61 ± 0.24 |
| CTTAGGTTAAAAGTGTGTACATAAAAACATATATAA [XGTACX_site2213] | 8.72 ± 0.45 |
| TAAATAAATTATTTTCGTACTTATTTATTTTAATTA [XGTACX_site283] | 8.65 ± 0.4 |
| ATAAGAAAAAGACACACACACAAAAAAAAAAAAAAA [CACACA_site2828] | 8.24 ± 0.57 |
| AAAAAAAAAAAACACACACACAAATACAAATGGTAA [CACACA_site1720] | 8.71 ± 0.54 |
| TTCAATAGGTATAATTGTACTTAATAATATATTGTT [XGTACX_site8363] | 8.41 ± 0.46 |
| AAGTTATTGATATATACACACAAATATAAATAATAT [CACACA_site6695] | 8.52 ± 0.39 |
| AATACATATCAAAGCTGTACAAAGTAAATTTTACTT [XGTACX_site3525] | 8.74 ± 0.41 |

| Sequence | gcPBM binding intensity (ln) |
| --- | --- |
| TAGAAGCATGGACACACACACATACATACCCATACA [CACACA_site4916] | 8.72 ± 0.47 |
| TTATTTTTCCGGAATAGTACATAGACGCAGATATAA [XGTACX_site6356] | 9.12 ± 0.47 |
| AAAAAAAAAAAAAAAGTGCACAGTCGTTTTAAAAAA [GTGCAC_site9848] | 8.79 ± 0.11 |
| TCTATATCTTTCAACACACAAATTTTTTTTTCCATC [CACACA_site4238] | 8.62 ± 0.46 |
| CTTTTCTCCCTCCATAGTACAATTATAAAAATATAT [XGTACX_site3090] | 8.75 ± 0.071 |
| ATGCAAAGTTTATAAAGTACATAAGTCAAAATAAAA [XGTACX_site1441] | 8.94 ± 0.39 |
| AAGATAATATTTTCTTGTACGCATGCACATACAAAT [XGTACX_site7181] | 9.4 ± 0.31 |
| ATTAACTATCATAACACACACAGTAGACATATTTTT [CACACA_site1822] | 8.37 ± 0.38 |
| AAATCATTTAAGAACACACAAATATTTCCATTAAAT [CACACA_site6808] | 8.4 ± 0.45 |
| CTCAATGTTTGCGATACATGCAAAAATTTTTAGAAT [TGCATGCA_site165] | 8.62 ± 0.37 |
| TACATTTCATTGTAATCATAAAAAATAAAGAAAAAA [XGTACX_negctrl_site542] | 8.43 ± 0.54 |
| GAAAGGATATATATATATATATATATAATACATTTC [GTGCAC_negctrl_site677] | 8.58 ± 0.099 |
| TATATATACATACATACACACATATATATATATATT [CACACA_site4110] | 8.71 ± 0.4 |
| ACATATAATATATAATGTACAAAATTGTTAACAATA [XGTACX_site3798] | 8.62 ± 0.49 |
| AAGGGGTAAAGAAAAACACACAAAAAATAAAAATAT [CACACA_site361] | 8.86 ± 0.62 |
| AAGAGAAAAATATATACACACACATAAATATATACA [CACACA_site8573] | 8.62 ± 0.46 |
| GAAATAATTCGATGTGCATGTAACGTTTCCCCAAAG [TGCATGCA_site122] | 9.18 ± 0.45 |
| TGCATACTTTTGTAAGTGCATAAAATCGTACCATGC | 8.71 ± 0.11 |
| GATGAAAATAGAAATACACACTAAAAAATAAAATTA [CACACA_site4764] | 8.44 ± 0.4 |
| AATTAAAAAAAATACACACACACATACACATATATA [CACACA_site3298] | 8.91 ± 0.26 |
| CCAAAAAAAAAAAAAAGTACATAAAAACAAGAGAAT [XGTACX_site3037] | 8.94 ± 0.72 |
| CGTATTTATATAATTACACACCATATTATAATTATT [CACACA_site3760] | 8.63 ± 0.35 |
| GTACATAGATTGTACATACACACCTATATAAATATC [CACACA_site3225] | 8.53 ± 0.31 |

| Sequence | gcPBM binding intensity (ln) |
| --- | --- |
| TTTTTTTTGTTCTATACAATTATAAAAATAAAATAT [XGTACX_negctrl_site53] | 8.15 ± 0.31 |
| AATATATGGTTCCATGATATTAAATTCAATTTAATG [CACACA_negctrl_site605] | 8.21 ± 0.39 |
| TAATATCATTTATGTAGTACTATAACAAGAACTATA [XGTACX_site3618] | 8.33 ± 0.35 |
| AAAAAAAAAAAGCACACACACATATGAGTATATATA [CACACA_site4683] | 8.54 ± 0.59 |
| GCTTATATAAAAAGTTGTACAACCGAATCTTTTACA [XGTACX_site2119] | 8.78 ± 0.37 |
| TACACAAGCAGACACACACACATATATATATATATA [CACACA_site1270] | 10.1 ± 0.53 |
| AATGTAAAAGTAAACACACACATATATAAATACATA [CACACA_site5386] | 8.78 ± 0.26 |
| TAGATATATAGACACACACACATTAATACCTATATT [CACACA_site7605] | 8.69 ± 0.3 |
| TGTCATTTAATTTTTTGTACGAAAAAAACATATAAA [XGTACX_site4952] | 8.6 ± 0.24 |
| TATATATATAGACACACACACACATATATATATATA [CACACA_site9366] | 10.1 ± 0.42 |
| GTATATATATATGTATATATTTTATTTTATTTTTAT [CACACA_negctrl_site1439] | 8.19 ± 0.34 |
| AGTTGTTTTAATAATGCATGTTATTTTATTTTAATA [TGCATGCA_site168] | 8.68 ± 0.28 |
| CTTATTATTATATGGGTGCTCATATTTTTCTTTTTT [GTGCAC_site9723] | 8.58 ± 0.38 |
| ACAAACATTAGGGAAGCATGCAATATTTTTTTACAT [TGCATGCA_site372] | 9.13 ± 0.56 |
| ATTATATACATATATATACACACGTAGTTTCTATTT [CACACA_site8697] | 8.36 ± 0.33 |
| TACTTTTTATTTTCTTGTACTTAATTGTCCAGATTT [XGTACX_site4334] | 8.72 ± 0.52 |
| TATAAATAAATAGATACACACATATATATAAATACA [CACACA_site155] | 8.59 ± 0.39 |
| ATATATATATATAAATGTACATTTTTCAATAGTTTT [XGTACX_site7449] | 10.1 ± 0.3 |
| ATTTTAATATAAAATACACACTACTATTATAAATAT [CACACA_site4917] | 8.26 ± 0.49 |
| GTACACATATAGTAATAATTTTATTATATTTTTTTG [CACACA_negctrl_site843] | 8.46 ± 0.3 |
| CACCCCCACAGACACACACACACACCCACATATATA [CACACA_site365] | 9.27 ± 0.39 |
| ATTCTTATTTAAAGGTGTACTCTTAAACAGATTTTA [XGTACX_site3526] | 8.38 ± 0.28 |
| TTCATAAAATGATATTGTACAAATAAATAATAGTAT [XGTACX_site819] | 8.98 ± 0.53 |

| Sequence | gcPBM binding intensity (ln) |
| --- | --- |
| GGTCTTCTTAATATACTGCACTGTATACGTATATAA | 9.18 ± 0.18 |
| AGATTTAAATTTATATGTACATAATATGGGCGTATA [XGTACX_site6631] | 8.94 ± 0.45 |
| TGTAGATTTTGTAACACACACATATATATACATATA [CACACA_site2405] | 8.4 ± 0.4 |
| AGAGATACATAAAAAAGTACATATAAAATTTAGGAA [XGTACX_site7201] | 8.69 ± 0.38 |
| TAAGTATACTCATACACACACACACTAGAAAAAAAA [CACACA_site4397] | 8.68 ± 0.53 |
| TATTTATTTATATACACACACTTGTATAAAAAATGT [CACACA_site7048] | 8.36 ± 0.3 |
| TACAAATTAATATGTACACACAAATATATATATATA [CACACA_site1977] | 9.93 ± 0.42 |
| ATAATATGAAACTAAGGTACACATATATTAACAGAG [XGTACX_site3842] | 8.915 ± 0.078 |
| TGCGACCATAATAAAGCACACAATGAAAAATATATA [CACACA_site256] | 8.84 ± 0.29 |
| TGTGCTCAAAATTATGCACACACCTAAAATTAATTT [CACACA_site8950] | 8.64 ± 0.38 |
| CCAACTATATTATGAAGTACATATATATTATATATA [XGTACX_site5767] | 8.57 ± 0.42 |
| TATACATATTTTATAGCACACAAATAATAATATGTA [CACACA_site8129] | 8.38 ± 0.32 |
| AAACCTACATAACATACACACGCATATATATAATTT [CACACA_site8923] | 8.71 ± 0.39 |
| TTTTTTTTTTTTTATTGTACATGCAAAAAATTCCAC [XGTACX_site2371] | 8.66 ± 0.34 |
| TCTGTATTTCCTTATGCATGCATTAGCAAGATAATA [TGCATGCA_site483] | 9.96 ± 0.61 |
| ATATATATATATTGTAGTACTTATTAAATTATTTAT [XGTACX_site6235] | 9.88 ± 0.3 |
| TTGGGTATTTTGTGCGCACACACATGCAAAAAGAAA [CACACA_site8299] | 9.26 ± 0.26 |
| GTAAGTATATATAAATGTACTTATGAGGTCAAATTA [XGTACX_site3392] | 8.39 ± 0.35 |
| ATATATAATCATATGTGTACATATATATTAATTTAA [XGTACX_site2839] | 8.32 ± 0.13 |
| AATTCAAAATAAAAATGTACATATATCAGAATATGG [XGTACX_site42] | 8.65 ± 0.36 |
